Laboratory results taken from the supplement of paper PMC4967469.
A lower IC50 marks a more sensitive line; a fit beyond the top or the lowest dose is shown as a bound at that dose. AUC is the area under the same curve over the 256-fold range up to the top dose, as a fraction; it is 1 without any effect and falls as sensitivity rises. Where the top dose is marked as inferred, it comes from the curve model; the source does not state it. For part of these data: An entry number marks a drug with two screens in the source, which often give different values.

Experiments:
Assay in all cases: Viability of human cancer cell lines after 72 h of drug (GDSC screen)
Shikonin = compound: CC(C)=CC[C@@H](O)C1=CC(=O)c2c(O)ccc(O)c2C1=O [Shikonin]; conditions: top dose 16 µM; top dose inferred
Method: (§1)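 Human cancer cell lines in 384-well plates, medium with 10% serum, drug for 72 h over a 256-fold dose range (nine 2-fold or five 4-fold steps up to the top dose). Adherent lines were fixed and stained with the nucleic acid dye Syto60, suspension lines read with resazurin; signal relative to control wells, capped at 0 and 100%. One two-parameter sigmoid per drug and line, fitted in a mixed model over all curves with the slope shared within a line.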

HG-5-113-01 = compound: CNC(=O)c1ccc(Nc2cc(Nc3ccccc3S(=O)(=O)C(C)C)c3cc[nH]c3n2)nc1 [HG-5-113-01]; conditions: top dose 10 µM; top dose inferred
Method: as §1

BMS-536924 = compound: Cc1cc(N2CCOCC2)cc2[nH]c(-c3c(NC[C@@H](O)c4cccc(Cl)c4)cc[nH]c3=O)nc12 [BMS-536924]; conditions: top dose 4 µM; screen: GDSC drug entry 1091; top dose inferred
Method: as §1

SB-525334 = compound: Cc1cccc(-c2[nH]c(C(C)(C)C)nc2-c2ccc3nccnc3c2)n1 [SB-525334]; conditions: top dose 20 µM; top dose inferred
Method: as §1

VX-702 = compound: NC(=O)c1ccc(N(C(N)=O)c2c(F)cccc2F)nc1-c1ccc(F)cc1F [VX-702]; conditions: top dose 2 µM; top dose inferred
Method: as §1

Olaparib = compound: O=C(c1cc(Cc2n[nH]c(=O)c3ccccc23)ccc1F)N1CCN(C(=O)C2CC2)CC1 [Olaparib]
Method: as §1

BIRB 0796 = compound: Cc1ccc(-n2nc(C(C)(C)C)cc2NC(=O)Nc2ccc(OCCN3CCOCC3)c3ccccc23)cc1 [BIRB 0796]; conditions: top dose 10 µM; top dose inferred
Method: as §1

[1] = top dose 5 µM, screen: GDSC drug entry 1017, top dose inferred
[2] = top dose 10 µM, screen: GDSC drug entry 1495

Cell Line	AUC (Shikonin)	IC50 (Shikonin)	AUC (HG-5-113-01)	IC50 (HG-5-113-01)	AUC (BMS-536924)	IC50 (BMS-536924)	AUC (SB-525334)	IC50 (SB-525334)	AUC (VX-702)	IC50 (VX-702)	AUC (Olaparib; [1])	IC50 (Olaparib; [1])	AUC (Olaparib; [2])	IC50 (Olaparib; [2])	AUC (BIRB 0796)	IC50 (BIRB 0796)
A2058 (melanoma, adherent)	0.489	0.934 µM	0.738	2.73 µM	0.964	> 4 µM	0.969	> 20 µM	0.97	> 2 µM	0.921	> 5 µM	–	–	–	–
ABC-1 (lung adenocarcinoma, adherent)	0.451	0.717 µM	0.562	0.955 µM	0.681	0.898 µM	0.839	17.8 µM	0.982	> 2 µM	0.953	> 5 µM	0.964	> 10 µM	–	–
DMS-53 (small cell lung carcinoma, adherent)	0.67	3.09 µM	0.891	> 10 µM	0.942	> 4 µM	0.988	> 20 µM	0.988	> 2 µM	0.988	> 5 µM	0.966	> 10 µM	–	–
DOV13 (ovary, adherent)	–	–	0.588	1.13 µM	0.804	2.37 µM	0.973	> 20 µM	0.977	> 2 µM	0.984	> 5 µM	0.947	> 10 µM	0.95	> 10 µM
EMC-BAC-1 (lung adenocarcinoma, adherent)	–	–	0.671	2.01 µM	0.816	2.61 µM	0.909	> 20 µM	0.948	> 2 µM	0.981	> 5 µM	0.962	> 10 µM	0.947	> 10 µM
EMC-BAC-2 (lung adenocarcinoma, adherent)	–	–	0.633	1.56 µM	0.868	> 4 µM	0.973	> 20 µM	0.982	> 2 µM	0.941	> 5 µM	0.872	> 10 µM	0.882	> 10 µM
EPLC-272H (lung squamous cell carcinoma, adherent)	0.628	2.36 µM	0.739	3.33 µM	0.835	3.12 µM	0.947	> 20 µM	0.983	> 2 µM	0.983	> 5 µM	0.962	> 10 µM	–	–
FLO-1 (oesophagus, adherent)	–	–	0.672	2.35 µM	0.822	3.89 µM	0.86	> 20 µM	0.956	> 2 µM	0.974	> 5 µM	0.956	> 10 µM	0.799	7.51 µM
G-MEL (melanoma, adherent)	0.393	0.51 µM	0.775	3.9 µM	0.939	> 4 µM	0.784	8.41 µM	0.936	> 2 µM	0.91	> 5 µM	0.984	> 10 µM	–	–
GP5d (large intestine, adherent)	0.536	1.24 µM	0.806	4.47 µM	0.917	> 4 µM	0.991	> 20 µM	–	–	–	–	0.989	> 10 µM	–	–
H2722 (mesothelioma, adherent)	0.584	1.78 µM	0.782	5.03 µM	0.97	> 4 µM	0.905	> 20 µM	0.984	> 2 µM	0.984	> 5 µM	0.942	> 10 µM	–	–
H2803 (mesothelioma, adherent)	0.512	1.08 µM	0.871	> 10 µM	0.919	> 4 µM	0.937	> 20 µM	–	–	–	–	0.975	> 10 µM	–	–
H2804 (mesothelioma, adherent)	0.634	2.44 µM	0.824	6.75 µM	0.914	> 4 µM	0.967	> 20 µM	–	–	–	–	0.957	> 10 µM	–	–
H2810 (mesothelioma, adherent)	–	–	0.861	9.94 µM	0.878	> 4 µM	–	–	–	–	–	–	0.958	> 10 µM	–	–
HSC-4 (head and neck, adherent)	0.544	1.37 µM	0.625	1.55 µM	0.755	1.78 µM	0.964	> 20 µM	0.952	> 2 µM	0.957	> 5 µM	0.901	> 10 µM	–	–
Hey (ovary, adherent)	–	–	0.743	2.94 µM	0.963	> 4 µM	0.972	> 20 µM	0.978	> 2 µM	0.961	> 5 µM	0.905	> 10 µM	0.918	> 10 µM
Hs940-T (melanoma, adherent)	0.27	0.189 µM	0.868	> 10 µM	0.961	> 4 µM	0.984	> 20 µM	–	–	–	–	0.959	> 10 µM	–	–
IM-95 (stomach, adherent)	0.48	0.877 µM	0.891	> 10 µM	0.949	> 4 µM	0.954	> 20 µM	–	–	–	–	–	–	–	–
JHOS-2 (ovary, adherent)	–	–	0.761	4.09 µM	0.952	> 4 µM	0.738	6.82 µM	0.973	> 2 µM	0.975	> 5 µM	0.925	> 10 µM	0.972	> 10 µM
JHOS-3 (ovary, adherent)	–	–	0.863	> 10 µM	0.888	> 4 µM	0.979	> 20 µM	0.984	> 2 µM	0.984	> 5 µM	0.957	> 10 µM	0.979	> 10 µM
MDA-MB-175-VII (breast, adherent)	0.608	–	0.949	> 10 µM	0.977	> 4 µM	0.981	> 20 µM	0.988	> 2 µM	0.988	> 5 µM	0.986	> 10 µM	–	–

Cell Line	AUC (Shikonin)	IC50 (Shikonin)	AUC (HG-5-113-01)	IC50 (HG-5-113-01)	AUC (BMS-536924)	IC50 (BMS-536924)	AUC (SB-525334)	IC50 (SB-525334)	AUC (VX-702)	IC50 (VX-702)	AUC (Olaparib; [1])	IC50 (Olaparib; [1])	AUC (Olaparib; [2])	IC50 (Olaparib; [2])	AUC (BIRB 0796)	IC50 (BIRB 0796)
NCC021 (kidney, adherent)	–	–	0.857	> 10 µM	0.905	> 4 µM	0.985	> 20 µM	0.976	> 2 µM	0.966	> 5 µM	0.98	> 10 µM	0.963	> 10 µM
NCI-H196 (small cell lung carcinoma, adherent)	0.506	1.04 µM	0.946	> 10 µM	0.987	> 4 µM	0.985	> 20 µM	–	–	–	–	0.987	> 10 µM	–	–
NCI-H292 (lung adenocarcinoma, adherent)	0.418	0.566 µM	0.613	1.37 µM	0.612	0.543 µM	0.907	> 20 µM	0.957	> 2 µM	0.913	> 5 µM	0.835	8.61 µM	–	–
NCI-H441 (lung adenocarcinoma, adherent)	0.74	6.61 µM	0.818	8.91 µM	0.86	> 4 µM	0.975	> 20 µM	0.976	> 2 µM	–	–	–	–	–	–
NCI-H1915 (large cell lung carcinoma, adherent)	0.699	3.68 µM	0.887	> 10 µM	0.978	> 4 µM	0.798	9.7 µM	–	–	–	–	0.95	> 10 µM	–	–
NCI-H2122 (lung adenocarcinoma, adherent)	0.756	5.16 µM	0.648	1.56 µM	0.854	2.83 µM	0.977	> 20 µM	0.989	> 2 µM	–	–	–	–	–	–
OACp4C (oesophagus, adherent)	–	–	0.712	2.85 µM	0.663	0.781 µM	0.691	4.81 µM	0.979	> 2 µM	0.976	> 5 µM	0.952	> 10 µM	0.945	> 10 µM
OV-7 (ovary, adherent)	–	–	0.563	1.01 µM	0.821	> 4 µM	0.921	> 20 µM	0.849	> 2 µM	0.871	> 5 µM	0.829	> 10 µM	0.975	> 10 µM
OV-17R (ovary, adherent)	–	–	0.893	> 10 µM	0.969	> 4 µM	0.877	> 20 µM	0.98	> 2 µM	0.977	> 5 µM	0.915	> 10 µM	0.876	> 10 µM
OV-56 (ovary, adherent)	–	–	0.878	9.48 µM	0.973	> 4 µM	0.974	> 20 µM	0.986	> 2 µM	0.968	> 5 µM	0.983	> 10 µM	0.989	> 10 µM
OVCA420 (ovary, adherent)	–	–	0.82	8.45 µM	0.876	> 4 µM	0.932	> 20 µM	0.982	> 2 µM	0.982	> 5 µM	0.948	> 10 µM	0.962	> 10 µM
PWR-1E (prostate, adherent)	–	–	0.747	3.19 µM	0.843	2.81 µM	–	–	0.973	> 2 µM	0.926	> 5 µM	0.899	> 10 µM	0.977	> 10 µM
SCC-4 (head and neck, adherent)	0.46	0.763 µM	0.78	4.94 µM	0.967	> 4 µM	0.984	> 20 µM	0.983	> 2 µM	0.945	> 5 µM	0.95	> 10 µM	–	–
SK-CO-1 (large intestine, adherent)	0.622	2.12 µM	0.69	2.05 µM	0.852	2.83 µM	0.974	> 20 µM	–	–	–	–	0.886	–	0.978	> 10 µM
SK-GT-2 (stomach, adherent)	–	–	0.729	2.91 µM	0.978	> 4 µM	–	–	0.973	> 2 µM	0.965	> 5 µM	0.971	> 10 µM	0.961	> 10 µM
T-24 (bladder, adherent)	0.71	3.78 µM	0.827	5.76 µM	0.976	> 4 µM	0.988	> 20 µM	–	–	–	–	0.898	> 10 µM	–	–
U-2-OS (osteosarcoma, adherent)	0.772	6.75 µM	0.675	2.02 µM	0.907	> 4 µM	0.98	> 20 µM	0.959	> 2 µM	0.98	> 5 µM	0.945	> 10 µM	–	–
UWB1.289 (ovary, adherent)	–	–	0.856	> 10 µM	0.96	> 4 µM	0.918	> 20 µM	0.98	> 2 µM	–	–	–	–	0.976	> 10 µM
VMRC-MELG (melanoma, adherent)	0.832	10.9 µM	0.917	> 10 µM	0.923	> 4 µM	0.874	> 20 µM	0.987	> 2 µM	0.984	> 5 µM	0.988	> 10 µM	–	–
WM278 (melanoma, adherent)	0.439	0.668 µM	0.805	5.83 µM	0.877	> 4 µM	0.923	> 20 µM	0.982	> 2 µM	0.965	> 5 µM	0.977	> 10 µM	–	–
